Experimental data taken from US10322110B2, “Imidazole-based antimicrobial agents” (priority 2014, dated 2019).
At least one read-out could not be matched to a standard name with certainty.

Test system: Streptococcus pneumoniae (Chester, ATCC49619)
Experiment: broth microdilution MIC assay, Streptococcus pneumoniae
Format: cell-based
Settings: MIC100 class score, broth microdilution, 24 h

SMILES	Antibacterial activity Streptococcus pneumoniae
Cc1[nH]c(-c2ccc(-c3ccccc3C(F)(F)F)o2)nc1-c1ccccc1 [Compound 17]	3 (MIC100 of 2-5 μg/ml)
Cc1[nH]c(-c2ccc(-c3ccccc3OC(F)(F)F)o2)nc1-c1ccccc1 [Compound 18]	3 (MIC100 of 2-5 μg/ml)
Cc1nc(-c2ccc(-c3cc(F)ccc3C(F)(F)F)o2)[nH]c1-c1ccccc1 [Compound 31a]	3 (MIC100 of 2-5 μg/ml)
Cc1nc(-c2ccc(-c3ccc(Cl)cc3C(F)(F)F)o2)[nH]c1-c1ccccc1 [Compound 32]	3 (MIC100 of 2-5 μg/ml)
Cc1nc(-c2ccc(-c3cc(C(F)(F)F)cc(C(F)(F)F)c3)o2)[nH]c1-c1ccccc1 [Compound 35]	2 (MIC100 of 6-10 μg/ml)
Cc1[nH]c(-c2ccc(-c3cc(C(F)(F)F)ccc3Cl)o2)nc1-c1ccccc1 [Compound 40]	2 (MIC100 of 6-10 μg/ml)
Cc1[nH]c(-c2ccc(-c3ccc(OC(F)(F)F)c(Cl)c3)o2)nc1-c1ccc(Cl)cc1 [Compound 50]	3 (MIC100 of 2-5 μg/ml)
CCc1ccc(-c2ccc(-c3nc(-c4ccccc4)c(C)[nH]3)o2)cc1 [Compound 53]	3 (MIC100 of 2-5 μg/ml)
Cc1ccccc1-c1ccc(-c2nc(-c3ccccc3)c(C)[nH]2)o1 [Compound 61]	3 (MIC100 of 2-5 μg/ml)
Cc1cccc(C)c1-c1ccc(-c2nc(-c3ccccc3)c(C)[nH]2)o1 [Compound 62]	3 (MIC100 of 2-5 μg/ml)
Cc1nc(-c2ccc(-c3ccccc3N(C)C)o2)[nH]c1-c1ccccc1 [Compound 71]	3 (MIC100 of 2-5 μg/ml)
Cc1[nH]c(-c2cnn(-c3ccccc3)n2)nc1-c1ccccc1 [Compound 73]	2 (MIC100 of 6-10 μg/ml)
FC(F)(F)c1ccccc1-c1ccc(-c2ncc(-c3ccccc3)[nH]2)o1 [Compound 75]	3 (MIC100 of 2-5 μg/ml)
Cc1nc(-c2ccc(-c3ccccc3Br)o2)[nH]c1C [Compound 84]	2 (MIC100 of 6-10 μg/ml)
Cc1nc(-c2ccc(-c3ccccc3Cl)o2)[nH]c1C [Compound 86]	3 (MIC100 of 2-5 μg/ml)
Cc1nc(-c2ccc(-c3cccc4[nH]ccc34)o2)[nH]c1-c1ccccc1 [Compound 138]	2 (MIC100 of 6-10 μg/ml)
Cc1nc(-c2ccc(-c3ccc(O)cc3C(F)(F)F)o2)[nH]c1-c1ccccc1 [Compound 139]	3 (MIC100 of 2-5 μg/ml)
Cc1nc(-c2ccc(/C=C/c3ccccc3)o2)[nH]c1-c1ccccc1 [Compound 143]	3 (MIC100 of 2-5 μg/ml)
Cc1nc(-c2ccc(-c3ccc4[nH]ccc4c3)o2)[nH]c1-c1ccccc1 [Compound 144]	3 (MIC100 of 2-5 μg/ml)
Cc1nc(-c2ccc(-c3cccc(O)c3)o2)[nH]c1-c1ccccc1 [Compound 145]	2 (MIC100 of 6-10 μg/ml)
Cc1nc(-c2ccc(-c3cccc(F)c3)o2)[nH]c1-c1ccccc1 [Compound 146]	3 (MIC100 of 2-5 μg/ml)
Cc1nc(-c2ccc(-c3ccc(F)cc3)o2)[nH]c1-c1ccccc1 [Compound 148]	3 (MIC100 of 2-5 μg/ml)
Cc1nc(-c2ccc(-c3ccc(O)cc3)o2)[nH]c1-c1ccccc1 [Compound 150]	2 (MIC100 of 6-10 μg/ml)
Cc1nc(-c2ccc(-c3ccc4cc[nH]c4c3)o2)[nH]c1-c1ccccc1 [Compound 152]	3 (MIC100 of 2-5 μg/ml)
Cc1nc(-c2ccc(-c3ccc(F)c(F)c3)o2)[nH]c1-c1ccccc1 [Compound 153]	3 (MIC100 of 2-5 μg/ml)
Cc1nc(-c2ccc(-c3ccc4cc(O)ccc4c3)o2)[nH]c1-c1ccccc1 [Compound 154]	2 (MIC100 of 6-10 μg/ml)
Cc1nc(-c2ccc(-c3ccc(O)c(C(F)(F)F)c3)o2)[nH]c1-c1ccccc1 [Compound 155]	3 (MIC100 of 2-5 μg/ml)
Cc1nc(-c2ccc(-c3ccc(O)c(Cl)c3)o2)[nH]c1-c1ccccc1 [Compound 157]	3 (MIC100 of 2-5 μg/ml)
Cc1nc(-c2ccc(-c3ccc(O)cc3Cl)o2)[nH]c1-c1ccccc1 [Compound 158]	3 (MIC100 of 2-5 μg/ml)

Same assay, conditions: MIC activity class

SMILES	Antibacterial activity SP (Streptococcus pneumoniae)
Cc1[nH]c(-c2ccc(-c3ccc(Cl)cc3)s2)nc1-c1ccccc1 [Compound 6]	3 (MIC100 of 2-5 μg/ml)
Cc1[nH]c(-c2ccc(-c3ccc(F)cc3)s2)nc1-c1ccccc1 [Compound 7]	3 (MIC100 of 2-5 μg/ml)
Cc1[nH]c(-c2cc(C)n(-c3ccc(Cl)cc3)c2C)nc1-c1ccccc1 [Compound 8]	3 (MIC100 of 2-5 μg/ml)
Cc1[nH]c(-c2cc(C)n(-c3ccc(F)cc3F)c2C)nc1-c1ccccc1 [Compound 9]	3 (MIC100 of 2-5 μg/ml)
Cc1[nH]c(-c2cc(C)n(-c3ccc(F)c(F)c3F)c2C)nc1-c1ccccc1 [Compound 10]	3 (MIC100 of 2-5 μg/ml)
Cc1[nH]c(-c2csc(-c3ccc(F)cc3)n2)nc1-c1ccccc1 [Compound 11]	3 (MIC100 of 2-5 μg/ml)
Cc1[nH]c(-c2ccc(-c3cccc(Cl)c3)s2)nc1-c1ccccc1 [Compound 12]	3 (MIC100 of 2-5 μg/ml)
Cc1[nH]c(-c2ccc(-c3cccc(Br)c3)s2)nc1-c1ccccc1 [Compound 13]	3 (MIC100 of 2-5 μg/ml)
Cc1[nH]c(-c2csc(-c3cccc(Br)c3)n2)nc1-c1ccccc1 [Compound 14]	3 (MIC100 of 2-5 μg/ml)
Cc1[nH]c(-c2ccc(-c3ccccc3F)s2)nc1-c1ccccc1 [Compound 15]	3 (MIC100 of 2-5 μg/ml)
Cc1nc(-c2ccc(-c3ccc(Cl)cc3Cl)o2)[nH]c1-c1ccc(F)cc1 [Compound 16]	3 (MIC100 of 2-5 μg/ml)
Cc1[nH]c(-c2ccc(-c3ccccc3C(F)(F)F)o2)nc1-c1ccccc1 [Compound 17]	3 (MIC100 of 2-5 μg/ml)
Cc1[nH]c(-c2ccc(-c3ccccc3OC(F)(F)F)o2)nc1-c1ccccc1 [Compound 18]	3 (MIC100 of 2-5 μg/ml)
Cc1[nH]c(-c2ccc(-c3ccccc3C(F)(F)F)o2)nc1-c1cccc(Cl)c1 [Compound 22]	3 (MIC100 of 2-5 μg/ml)
Cc1[nH]c(-c2ccc(-c3ccccc3C(F)(F)F)o2)nc1-c1ccc(Br)cc1 [Compound 25]	3 (MIC100 of 2-5 μg/ml)
Cc1[nH]c(-c2ccc(-c3ccccc3OC(F)(F)F)o2)nc1-c1ccc(C(F)(F)F)cc1 [Compound 26]	3 (MIC100 of 2-5 μg/ml)
CCc1ccc(-c2[nH]c(-c3ccc(-c4ccccc4C(F)(F)F)o3)nc2C)cc1 [Compound 28]	3 (MIC100 of 2-5 μg/ml)
Cc1nc(-c2ccc(-c3ccccc3OC(F)(F)F)o2)[nH]c1-c1ccc(Br)cc1 [Compound 29]	3 (MIC100 of 2-5 μg/ml)
Cc1nc(-c2ccc(-c3cc(F)ccc3C(F)(F)F)o2)[nH]c1-c1ccccc1 [Compound 31a]	3 (MIC100 of 2-5 μg/ml)
Cc1nc(-c2ccc(-c3ccc(Cl)cc3C(F)(F)F)o2)[nH]c1-c1ccccc1 [Compound 32]	3 (MIC100 of 2-5 μg/ml)
Cc1[nH]c(-c2ccn(-c3ccccc3C(F)(F)F)c2)nc1-c1ccccc1 [Compound 33]	2 (MIC100 of 6-10 μg/ml)
Cc1nc(-c2ccc(-c3cc(C(F)(F)F)cc(C(F)(F)F)c3)o2)[nH]c1-c1ccccc1 [Compound 35]	2 (MIC100 of 6-10 μg/ml)

SMILES	Antibacterial activity SP (Streptococcus pneumoniae)
Cc1[nH]c(-c2cc(C)n(-c3cccc(C(F)(F)F)c3)c2C)nc1-c1ccccc1 [Compound 36]	3 (MIC100 of 2-5 μg/ml)
Cc1[nH]c(-c2ccc(-c3cccc(C(F)(F)F)c3)o2)nc1-c1ccc(F)cc1 [Compound 38]	3 (MIC100 of 2-5 μg/ml)
Cc1[nH]c(-c2ccc(-c3cc(C(F)(F)F)ccc3Cl)o2)nc1-c1ccccc1 [Compound 40]	2 (MIC100 of 6-10 μg/ml)
Cc1[nH]c(-c2ccc(-c3ccc(C(F)(F)F)cc3)s2)nc1-c1ccccc1 [Compound 46]	3 (MIC100 of 2-5 μg/ml)
Cc1[nH]c(-c2ccc(-c3ccc(OC(F)(F)F)c(Cl)c3)o2)nc1-c1ccc(Cl)cc1 [Compound 50]	3 (MIC100 of 2-5 μg/ml)
Cc1ccc(-c2ccc(-c3nc(-c4ccccc4)c(C)[nH]3)o2)cc1 [Compound 52]	2 (MIC100 of 6-10 μg/ml)
CCc1ccc(-c2ccc(-c3nc(-c4ccccc4)c(C)[nH]3)o2)cc1 [Compound 53]	3 (MIC100 of 2-5 μg/ml)
Cc1ccc(-c2ccc(-c3nc(-c4ccccc4)c(C)[nH]3)s2)cc1 [Compound 54]	2 (MIC100 of 6-10 μg/ml)
Cc1ccc(-c2ncc(-c3nc(-c4ccccc4)c(C)[nH]3)s2)cc1 [Compound 55]	3 (MIC100 of 2-5 μg/ml)
Cc1ccc(-c2nc(-c3nc(-c4ccccc4)c(C)[nH]3)cs2)cc1 [Compound 56]	3 (MIC100 of 2-5 μg/ml)
Cc1ccc(-c2nc(-c3nc(-c4ccccc4)c(C)[nH]3)co2)cc1 [Compound 57]	3 (MIC100 of 2-5 μg/ml)
Cc1[nH]c(-c2cc(C)n(-c3ccc4c(c3)CCC4)c2C)nc1-c1ccccc1 [Compound 59]	3 (MIC100 of 2-5 μg/ml)
Cc1ccccc1-c1ccc(-c2nc(-c3ccccc3)c(C)[nH]2)o1 [Compound 61]	3 (MIC100 of 2-5 μg/ml)
Cc1cccc(C)c1-c1ccc(-c2nc(-c3ccccc3)c(C)[nH]2)o1 [Compound 62]	3 (MIC100 of 2-5 μg/ml)
FC(F)(F)Oc1ccccc1-c1ccc(-c2ncc(-c3ccccc3)[nH]2)o1 [Compound 63]	3 (MIC100 of 2-5 μg/ml)
FC(F)(F)Oc1ccccc1-c1ccc(-c2nc(-c3ccccc3Cl)c[nH]2)o1 [Compound 67]	3 (MIC100 of 2-5 μg/ml)
FC(F)(F)Oc1ccccc1-c1ccc(-c2nc(-c3ccc(Cl)cc3Cl)c[nH]2)o1 [Compound 68]	2 (MIC100 of 6-10 μg/ml)
Cc1nc(-c2ccc(-c3ccccc3N(C)C)o2)[nH]c1-c1ccccc1 [Compound 71]	3 (MIC100 of 2-5 μg/ml)
Cc1[nH]c(-c2coc(-c3ccccc3C(F)(F)F)c2)nc1-c1ccccc1 [Compound 72]	2 (MIC100 of 6-10 μg/ml)
Cc1[nH]c(-c2cnn(-c3ccccc3)n2)nc1-c1ccccc1 [Compound 73]	2 (MIC100 of 6-10 μg/ml)
Cc1[nH]c(-c2ccc(-c3ccccc3)s2)nc1-c1ccccc1 [Compound 74]	3 (MIC100 of 2-5 μg/ml)
